Reference: publication PMC8620910, “Design and Synthesis of (2-oxo-1,2-Dihydroquinolin-4-yl)-1,2,3-triazole Derivatives via Click Reaction: Potential Apoptotic Antiproliferative Agents” (Molecules, 2021)
“And” between values parts separate entries of the source, which are not always exact repeats. Identical values can stand only once.

Tests used:
[1] = Cell viability assay (MTT) on MCF-10A; format: cell-based; details: human, MCF-10A mammary epithelial cells, four days
Description: A human mammary gland epithelial cell line was used in the cell viability assay (MCF-10A). MCF-10A cells were incubated with compounds 8a–l for four days, and cell viability was determined using an MTT assay.
An MTT assay was performed to investigate the effect of the synthesized compounds on mammary epithelial cells (MCF-10A) at a concentration of 50 µM for the tested compound. The cells were propagated in a medium consisting of Ham’s F-12 medium/Dulbecco’s modified Eagle’s medium (DMEM) (1:1) supplemented with 10% fetal calf serum, 2 mM glutamine, insulin (10 μg/mL), hydrocortisone (500 ng/mL), and epidermal growth factor (20 ng/mL). Trypsin ethylenediamine tetra acetic acid (EDTA) was used to pass the cells every 2–3 days. Ninety-six-well flat-bottomed cell culture plates were used to seed the cells at a density of 10^4 cells mL^−1. The medium was aspirated from all the wells of culture plates after 24 h followed by the addition of synthesized compounds (in 200 μL medium to yield a final concentration of 0.1% (v/v) dimethylsulfoxide) into individual wells of the plates. Four wells were designated to a single compound. The plates were allowed to incubate at 37 °C for 96 h. […] The plates were vortexed, followed by the measurement of absorbance at 540 nm on a microplate reader. […]

[2] = tested on: epithelial cancer cell line (A-549); assay: Anti-proliferative propidium iodide fluorescence assay, A-549; format: cell-based; details: Homo sapiens, A549; read-out: Anti-Proliferative Activity IC50 ± SEM, A-549
Description: (§1) Tested 8a–l compounds were assessed for their anti-proliferative activity against four human cancer cell lines, including the pancreatic cancer cell line (Panc-1), breast cancer cell line (MCF-7), colon cancer cell line (HT-29), and epithelial cancer cell line (A-549) using propidium iodide fluorescence assay and the reference doxorubicin. Results (IC50) are illustrated in Table 3.
(§2) To explore the anti-proliferative potential of compounds, propidium iodide fluorescence assay was performed using different cell lines such as Panc-1 (pancreas cancer cell line), MCF-7 (breast cancer cell line), HT-29 (colon cancer cell line), and A-549 (epithelial cancer cell line), respectively. […] PI cannot pass through the cell membrane, and its signal intensity can be considered as directly proportional to the quantity of cellular DNA. Cells whose cell membranes are damaged or have changed permeability are counted as dead ones. […] A fluorometer (Polar-Star BMG Tech, Beijing, China) was used to record the readings at excitation and emission wavelengths of 530 and 620 nm for each well. The percentage cytotoxicity of compounds was calculated using the following formula: % Cytotoxicity=AC−ATC/AC×100 where ATC = absorbance of treated cells and AC = absorbance of control. […]

[3] = tested on: breast cancer cell line (MCF-7); assay: Anti-proliferative propidium iodide fluorescence assay, MCF-7; format: cell-based; details: Homo sapiens, MCF7; read-out: Anti-Proliferative Activity IC50 ± SEM, MCF-7
Description: as §1
(§3) To explore the anti-proliferative potential of compounds, propidium iodide fluorescence assay was performed using different cell lines such as Panc-1 (pancreas cancer cell line), MCF-7 (breast cancer cell line), HT-29 (colon cancer cell line), and A-549 (epithelial cancer cell line), respectively. To calculate the total nuclear DNA, a fluorescent dye (propidium iodide, PI) is used to attach to the DNA, thus offering a quick and precise technique. PI cannot pass through the cell membrane, and its signal intensity can be considered as directly proportional to the quantity of cellular DNA. Cells whose cell membranes are damaged or have changed permeability are counted as dead ones. The assay was performed by seeding the cells of different cell lines at a density of 3000–7500 cells/well (in 200 μL medium) in culture plates followed by incubation for 24 h at 37 °C in humidified 5%CO2/95% air atmospheric conditions. The medium was removed; the compounds were added to the plates at 10 μM concentrations (in 0.1% DMSO) in triplicates, followed by incubation for 48h. DMSO (0.1%) was used as a control. After incubation, the medium was removed, followed by the addition of PI (25 μL, 50 μg/mL in water/medium) to each well of the plates. At −80 °C, the plates were allowed to freeze for 24 h, followed by thawing at 25 °C. A fluorometer (Polar-Star BMG Tech, Beijing, China) was used to record the readings at excitation and emission wavelengths of 530 and 620 nm for each well. The percentage cytotoxicity of compounds was calculated using the following formula: % Cytotoxicity=AC−ATC/AC×100 where ATC = absorbance of treated cells and AC = absorbance of control. Doxorubicin was used as a positive control in the assay.

[4] = tested on: pancreatic cancer cell line (Panc-1); assay: Anti-proliferative propidium iodide fluorescence assay, Panc-1; format: cell-based; details: Homo sapiens, read-out: Anti-Proliferative Activity IC50 ± SEM, Panc-1
Description: as §1, §2

[5] = tested on: colon cancer cell line (HT-29); assay: Anti-proliferative propidium iodide fluorescence assay, HT-29; format: cell-based; details: Homo sapiens, read-out: Anti-Proliferative Activity IC50 ± SEM, HT-29
Description: as §1, §2

[6] = tested on: A-549, MCF-7, Panc-1 and HT-29 cell lines; assay: Average anti-proliferative IC50 over the four cancer cell lines; format: cell-based; details: Homo sapiens; average of A-549, MCF-7, Panc-1, HT-29
Description: as §1, with “doxorubicin.” for “doxorubicin. Results (IC50) are illustrated in Table 3.”
as §3

[7] = tested on: active Caspase 8; assay: Caspase 8 activation assay in MCF-7; format: cell-based, human; details: for Caspase 8 Conc: MCF-7; for Caspase 8 Fold Change: MCF-7, versus untreated control
Description: (§4) Compounds 8e and 8g were also tested for their effects on Caspases 8 and 9.
Cells were obtained from American Type Culture Collection; cells were grown in RPMI 1640 containing 10% fetal bovine serum at 37 °C, stimulated with the compounds to be tested for caspase8, and lysed with Cell Extraction Buffer. This lysate was diluted in Standard Diluent Buffer over the range of the assay and measured for human active Caspase 8 content. (cells were plated in a density of 1.2–1.8 × 10,000 cells/well in a volume of 100 µL complete growth medium + 100 µL of the tested compound per well in a 96-well plate for 24 h before the enzyme assay for Tubulin). […] A standard curve was prepared from seven human Caspase 8 standard dilutions, and human Caspase 8 concentration was determined.

[8] = tested on: Caspase 9; assay: Caspase 9 level in MCF-7; format: cell-based, human; details: for Caspase 9 Conc: MCF-7; for Caspase 9 Fold Change: MCF-7, versus untreated control
Description: as §4

[9] = tested on: Cytochrome C; assay: Cytochrome C assay in MCF-7; format: cell-based, human; details: for Cytochrome C Conc: MCF-7; for Cytochrome C Fold Change: MCF-7, versus untreated control
Description: The amount of cytochrome C in a cell plays an important role in caspase activation and the initiation of the intrinsic apoptosis pathway. […] The findings add to the proof that apoptosis can be attributed to cytochrome C overexpression and activation of the intrinsic apoptotic pathway triggered by the tested compounds.
Cells were obtained from American Type Culture Collection, grown in RPMI 1640 containing 10% fetal bovine serum at 37 °C, stimulated with the compounds to be tested for cytochrome C, and lysed with Cell Extraction Buffer. This lysate was diluted in Standard Diluent Buffer over the range of the assay and measured for cytochrome C content. (cells were plated in cells/well in a volume of 100 µL complete growth medium + 100 µL of the tested compound + 50 µL of 1× biotin-conjugated antibody + 100 µL of 1× streptavidin-HRP + 100 µL TMB substrate soln of per well in a 96-well plate for 24 h before assay).

[10] = tested on: Bax; assay: Bax activation assay in MCF-7; details: for Bax Conc: MCF-7; for Bax Fold Change: MCF-7, versus untreated control
[11] = tested on: Bcl-2; assay: Bcl-2 inhibition assay in MCF-7; details: for Bcl-2 Conc: MCF-7; for Bcl-2 Fold Reduction: MCF-7, versus untreated control
[12] = tested on: active Caspase 3; assay: Caspase 3 activation assay in MCF-7; details: for Caspase 3 Fold Change: MCF-7, versus untreated control
[13] = tested on: MCF-7 cancer cell line; assay: Flow cytometric cell cycle analysis; format: cell-based, human; details: for percentage of apoptotic cells in the Pre-G1: control 1.63%
[14] = tested on: MCF-7 cell line; assay: Cell apoptosis assay, annexin V-FITC/PI flow cytometry; format: cell-based, human; details: MCF-7, annexin V-FITC staining
Description: Apoptosis was determined by flow cytometry based on the annexin V-fluorescein isothiocyanate (FITC) and propidium iodide (PI) staining kit (BD Pharmingen, San Diego, USA). Apoptotic cells were defined as Annexin-V-positive. Cells were grown to approximately ~70% confluency and exposed to the tested compounds (8 μmol/L) for 24 h. Treated cells were trypsinized, washed twice with PBS, and transferred into microcentrifuge tubes for centrifugation at 1000 rpm for 5 min at room temperature, and then resuspended in binding buffer; 5 μL of FITC and PI were added to per Eppendorf tube, and cells were vortexed and incubated for 15 min at room temperature in the dark. Subsequently, cells were analyzed by flow cytometry (Becton Dickinson, Franklin Lakes, NJ, USA).

[15] = tested on: CCRF-CEM; details: read-out: IC50 against CCRF-CEM; ref [7],[8],[9]; cited from earlier work
[16] = tested on: MOLT; details: read-out: IC50 against MOLT; ref [7],[8],[9]; cited from earlier work
[17] = tested on: RPMI-8226; parameters: method as in PMID 31212178, PMID 32062064, PMID 33137557; details: ref [7],[8],[9]; read-out: IC50 against RPMI-8226; cited from earlier work

Row | IC50 [2] [nM] | IC50 [3] [nM] | IC50 [4] [nM] | IC50 [5] [nM] | IC50 [6] [nM] | SMILES | viability at 96 h, 50 µM [1] [%] | Caspase 8 Conc [7] [ng/mL] | Caspase 8 Fold Change [7] [fold] | Caspase 9 Conc [8] [ng/mL] | Caspase 9 Fold Change [8] [fold] | Cytochrome C Conc [9] [ng/mL] | Bax Conc [10] [pg/mL] | Bax Fold Change [10] | Bcl-2 Conc [11] [ng/mL] | Bcl-2 Fold Reduction [11] [fold] | Caspase 3 Fold Change [12] [fold] | Cytochrome C Fold Change [9] [fold] | percentage of apoptotic cells in the Pre-G1 [13] [%] | other results
1 | 2100 ± 200 | 1500 ± 700 | 1700 ± 100 | 2200 ± 400 | 1880 | COc1ccc2[nH]c(=O)c(C(c3ccc(OCc4cn(-c5cc(=O)[nH]c6ccccc56)nn4)cc3)c3c(O)c4cc(OC)ccc4[nH]c3=O)c(O)c2c1 [Compound 8e, 3,3’-((4-((1-(2-oxo-1,2-dihydroquinolin-4-yl)-1H-1,2,3-triazol-4-yl)methoxy)phenyl)-methylene)bis(4-hydroxy-6-methoxyquinolin-2(1H)-one)] | 85 | 1.29 | 7.58 | 12.89 | 13.86 | 0.548 | 247.65 | 30 fold and 29.98 fold | 1.278 | 3.97 | 7.23 |  |  | Caspase 3 Conc ([12]; MCF-7): 475.20 ± 4.27 pg/mL
2 | 1900 ± 200 | 1200 ± 200 | 1400 ± 200 | 1800 ± 400 | 1580 | COc1ccc2[nH]c(=O)cc(-n3cc(COc4ccc(C(c5c(O)c6cc(OC)ccc6[nH]c5=O)c5c(O)c6cc(OC)ccc6[nH]c5=O)cc4)nn3)c2c1 [Compound 8g, 3,3’-((4-((1-(6-Methoxy-2-oxo-1,2-dihydroquinolin-4-yl)-1H-1,2,3-triazol-4-yl)methoxy)phenyl)methylene)bis(4-hydroxy-6-methoxyquinolin-2(1H)-one)] | 84 | 1.52 | 8.94 | 13.98 | 15.03 | 0.587 | 264.90 | 32 fold and 32.07 fold | 1.085 | 4.68 | 7.45 | ~12.76 | 26.57 | percentage of cells in the G2/M phase ([13]; control 4.38%): 36.6%; percentage of cells in the S phase ([13]; control 42.01%): 27.15%; percentage of cells in the G0/G1 phase ([13]; control 53.61%): 36.25%; pro-apoptotic activity [14]: significant pro-apoptotic activity
3 |  | 900 ± 620 |  |  | 1140 | COc1cccc2c1C(=O)c1c(O)c3c(c(O)c1C2=O)C[C@@](O)(C(=O)CO)C[C@@H]3O[C@H]1C[C@H](N)[C@H](O)[C@H](C)O1 [Doxorubicin, reference compound] |  |  | 10.07 | 16.23 |  |  | 276.19 | 33.42 fold | 0.983 | 5.17 | 7.66 | 13.13 | 22.17 | Bcl-2 Conc ([11]; listed as doxorubicin): 0.98 ng/mL
4 |  |  |  |  |  | N#Cc1nn(-c2cc(=O)[nH]c3ccc(Br)cc23)c(N)c1C#N [III] |  |  |  |  |  |  |  |  |  |  |  |  |  | IC50 [15]: 2420 ± 40 nM; IC50 [16]: 1350 ± 80 nM
5 |  |  |  |  |  | O=c1cc(N/N=C/c2ccc(Cl)cc2)c2cc(Cl)ccc2[nH]1 [II] |  |  |  |  |  |  |  |  |  |  |  |  |  | IC50 [17]: 15700 ± 1210 nM
